The IC50 comes from the fitted curve, where viability falls to half of the control; where the fit passes the top or lowest dose, that dose stands as a limit. AUC, from the same fit, is the share of area under the viability curve across the 256-fold dose range; values near 1 show little effect. For some of these results: An inferred top dose comes from the curve model; the source does not state it.
Tests used:
Assay in all cases: Viability of human cancer cell lines after 72 h of drug (GDSC screen)
Midostaurin = compound: CO[C@@H]1[C@H](N(C)C(=O)c2ccccc2)C[C@H]2O[C@]1(C)n1c3ccccc3c3c4c(c5c6ccccc6n2c5c31)C(=O)NC4 [Midostaurin]; settings: top dose 0.512 µM; top dose inferred
Method: (§1)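 Human cancer cell lines in 384-well plates, medium with 10% serum, drug for 72 h over a 256-fold dose range (nine 2-fold or five 4-fold steps up to the top dose). Adherent lines were fixed and stained with the nucleic acid dye Syto60, suspension lines read with resazurin; signal relative to control wells, capped at 0 and 100%. One two-parameter sigmoid per drug and line, fitted in a mixed model over all curves with the slope shared within a line.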

Bosutinib = compound: COc1cc(Nc2c(C#N)cnc3cc(OCCCN4CCN(C)CC4)c(OC)cc23)c(Cl)cc1Cl [Bosutinib]; settings: top dose 2 µM
Method: as §1

NVP-BHG712 = compound: Cc1ccc(C(=O)Nc2cccc(C(F)(F)F)c2)cc1Nc1nc(-c2cccnc2)nc2c1cnn2C [NVP-BHG712]; settings: top dose 10.24 µM; top dose inferred
Method: as §1

Mitomycin C = compound: CO[C@@]12[C@H](COC(N)=O)C3=C(C(=O)C(C)=C(N)C3=O)N1C[C@@H]1N[C@@H]12 [Mitomycin C]; settings: top dose 16 µM
Method: as §1

IOX2 = compound: O=C(O)CNC(=O)c1c(O)c2ccccc2n(Cc2ccccc2)c1=O [IOX2]; settings: top dose 0.1 µM; top dose inferred
Method: as §1

Roscovitine = compound: CC[C@H](CO)Nc1nc(NCc2ccccc2)c2ncn(C(C)C)c2n1 [Roscovitine]; settings: top dose 16 µM; top dose inferred
Method: as §1

Row | Cell Line | AUC (Midostaurin) | IC50 (Midostaurin) [nM] | AUC (Bosutinib) | IC50 (Bosutinib) [nM] | AUC (NVP-BHG712) | IC50 (NVP-BHG712) [nM] | AUC (Mitomycin C) | IC50 (Mitomycin C) [nM] | AUC (IOX2) | IC50 (IOX2) [nM] | AUC (Roscovitine) | IC50 (Roscovitine) [nM]
1 | NCI-H1581 (large cell lung carcinoma, semi-adherent) | 0.975 | > 512 | 0.974 | > 2000 | 0.955 | > 10200 | 0.51 | 1060 | 0.989 | > 100 | 0.972 | > 16000
2 | EW-3 (Ewing sarcoma, adherent) | 0.953 | > 512 | 0.848 | 1830 | 0.911 | > 10200 | 0.217 | 129 | 0.97 | > 100 | 0.984 | > 16000
3 | U-698-M (B-cell leukaemia, suspension) | 0.986 | > 512 | 0.931 | > 2000 | 0.838 | 6950 | 0.57 | 1560 | 0.986 | > 100 | 0.968 | > 16000
4 | JiyoyeP-2003 (Burkitt lymphoma, suspension) | 0.959 | > 512 | 0.977 | > 2000 | 0.851 | 6390 | 0.434 | 676 | 0.989 | > 100 | 0.851 | 9990
5 | NCI-H1092 (small cell lung carcinoma, suspension) | 0.976 | > 512 | 0.99 | > 2000 | 0.959 | > 10200 | 0.627 | 2240 | 0.983 | > 100 | 0.954 | > 16000
6 | DB (B-cell lymphoma, suspension) | 0.912 | > 512 | 0.899 | > 2000 | 0.783 | 4890 | 0.366 | 405 | 0.981 | > 100 | 0.919 | > 16000
7 | KCL-22 (chronic myeloid leukaemia, suspension) | 0.976 | > 512 | 0.864 | 1310 | 0.226 | 121 | 0.468 | 829 | 0.984 | > 100 | 0.909 | > 16000
8 | ML-2 (acute myeloid leukaemia, suspension) | 0.888 | 466 | 0.986 | > 2000 | 0.733 | 2700 | 0.073 | < 62.5 | 0.989 | > 100 | 0.955 | > 16000
9 | HD-MY-Z (Hodgkin lymphoma, adherent) | 0.984 | > 512 | 0.857 |  | 0.822 | 6040 | 0.455 | 753 | 0.984 | > 100 | 0.887 | > 16000
10 | A4-Fuk (B-cell lymphoma, suspension) | 0.854 | 433 | 0.753 | 695 | 0.917 | > 10200 | 0.278 |  | 0.984 | > 100 | 0.885 | > 16000
11 | BB65-RCC (kidney, adherent) | 0.894 | > 512 | 0.845 | 1780 | 0.946 | > 10200 | 0.239 | 154 | 0.966 | > 100 | 0.76 | 6460
12 | NCI-H720 (lung carcinoid, suspension) | 0.992 | > 512 | 0.992 | > 2000 | 0.989 | > 10200 | 0.613 | 1990 | 0.991 | > 100 | 0.986 | > 16000
13 | CL-11 (large intestine, adherent) | 0.983 | > 512 | 0.984 | > 2000 | 0.941 | > 10200 | 0.776 | 7180 | 0.968 | > 100 | 0.983 | > 16000
14 | JURL-MK1 (chronic myeloid leukaemia, suspension) | 0.94 | > 512 | 0.747 | 638 | 0.097 | < 40 | 0.233 | 169 | 0.97 | > 100 | 0.974 | > 16000
15 | TE-1 (oesophagus, adherent) | 0.939 | > 512 | 0.922 | > 2000 | 0.982 | > 10200 | 0.24 | 142 | 0.966 | > 100 | 0.932 | > 16000
16 | TE-9 (oesophagus, adherent) | 0.872 | > 512 | 0.95 | > 2000 | 0.987 | > 10200 | 0.376 | 447 | 0.984 | > 100 | 0.886 | > 16000
17 | KMOE-2 (acute myeloid leukaemia, suspension) | 0.963 | > 512 | 0.871 | 1540 | 0.6 | 1170 | 0.544 | 1300 | 0.983 | > 100 | 0.968 | > 16000
18 | TGBC1TKB (biliary tract, adherent) | 0.953 | > 512 | 0.989 | > 2000 | 0.969 | > 10200 | 0.527 | 1190 | 0.988 | > 100 | 0.978 | > 16000
19 | TE-12 (oesophagus, suspension) | 0.881 | > 512 | 0.806 | 1290 | 0.947 | > 10200 | 0.26 | 175 | 0.98 | > 100 | 0.932 | > 16000
20 | ETK-1 (biliary tract, adherent) | 0.841 | 426 | 0.917 | > 2000 | 0.834 | 7930 | 0.218 | 130 | 0.967 | > 100 | 0.935 | > 16000
21 | OCI-AML2 (acute myeloid leukaemia, suspension) | 0.892 | 338 | 0.97 | > 2000 | 0.138 | 76.3 | 0.034 | < 62.5 | 0.995 | > 100 | 0.926 | 14200
